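1) Cells in 96-well plates. 2) Compound, 48 h, 5 concentrations. 3) Linear interpolation between surrounding doses. 4) Unreached endpoint = highest concentration. GI50: concentration for 50% inhibition of growth.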 The source made the active and inactive calls. No stated cut-off is given here; in the data, active = GI50 up to about 1.1 µM and inactive = higher.
What follows are molecules tested on NCI-H322M (assay: inhibition of tumour cell growth, NCI panel, 48 h).

SMILES	GI50
CC1(C)C(O)OC(O)C1(C)C (centres undefined)	inactive: > 100 µM
CCOC(=O)CCc1c(C)nc2c(C)c3c([nH]c4ccc(Cl)cc43)c(C)c2c1O	inactive: 37.3 µM
CC(C)(C)/N=C\N(C=C(c1ccccc1)c1ccccc1)C1CCCCC1	inactive: 41.1 µM
Cc1nc2ccc(Cl)cc2c2c1CCO2	inactive: 51.1 µM
Cc1sc2ccccc2[n+]1CCC(=O)O	inactive: > 100 µM
O=C1NC(=S)NC(=O)C1=C(O)Nc1ccccc1	inactive: 41 µM
NC(C/C=C/P(=O)(O)O)C(=O)O (centres undefined)	inactive: > 100 µM
Cc1cc(O)c2c(c1)C(=O)C=C(Br)C2=O	inactive: 29.3 µM
O=C(O)CSc1ccc([N+](=O)[O-])cc1[N+](=O)[O-]	inactive: > 100 µM
O=C1CCCC2=C1CC1=C(CCCC1=O)N2c1ccc(Cl)cc1	inactive: > 100 µM
COc1cc2c(cc1OC)c1c(OC)c(OC)cc3c1c1c2sc(=S)n1CC3	inactive: 89.1 µM
CSc1cc(Cl)c(C)cc1S(=O)(=O)NC(=O)Nc1ccc(Cl)cc1	inactive: 31 µM
COc1cc2c(cc1OC)-c1[nH]c3ccc(C#N)cc3c1CC(=O)N2	inactive: 3.52 µM
CC(=O)Oc1cc2c(cc1OC(C)=O)OCC(c1ccccc1)C2 (centres undefined)	inactive: 34.4 µM
O=C1/C(=C\c2cccc(Oc3ccccc3)c2)S(=O)(=O)C(c2ccccc2)N1c1cccc(Cl)c1 (centres undefined)	inactive: > 100 µM
CCN1CCc2sc3nc(S)n(C)c(=O)c3c2C1	inactive: > 100 µM
O=C1C(=Cc2cccc(Cl)c2)N=C(c2ccccc2)N1n1c(-c2ccccc2)nc2ccccc2c1=O	inactive: 44.8 µM
Cc1oc(N)c(S(=O)(=O)c2cc3ccccc3[n+]([O-])c2N)c1C	inactive: > 100 µM
Cc1cccc2c1c(=O)c1c(O)c3c(cc1n2C)OC(C)(C)C=C3	inactive: > 10 µM
N=C1C(O)C2(I)c3ccccc3N3C(=N)C(O)C4c5ccccc5N1C4C32 (centres undefined)	inactive: > 100 µM
CC(C)/C(Cl)=N\OC(=O)Nc1ccccc1F	inactive: 20.8 µM
COc1cccc2c1[C@]1(O)C(O)CCCC21 (some centres undefined)	inactive: > 100 µM
COc1ccc(OC)c(CCc2ccccc2CC(=O)O)c1	inactive: > 100 µM
CC1=C(C)C(=O)C(C2=C(C3=CC(=O)C(C)=C(C)C3=O)C(=O)C(C)=C(C)C2=O)=CC1=O	inactive: 22.4 µM
Cc1cc(Cl)ccc1OCC(=O)Nc1nc(N)nc(N)n1	inactive: > 100 µM

SMILES	GI50
C=C(CN(CC)CC)C1(c2ccccc2)CC2(CCCC2)C(=O)O1 (centres undefined)	inactive: > 100 µM
COc1ccc2c(c1)CCN1CCCc3ccccc3C21 (centres undefined)	inactive: 42.8 µM
CC(=O)c1c(-c2ccco2)c(C#N)c(=S)n(C2OC(CO)C(O)C(O)C2O)c1-c1ccccc1 (centres undefined)	inactive: 96.6 µM
CC(C)C[C@H](NC(=O)[C@@H](N)Cc1cccc2ccccc12)B(O)O	active: 0.251 µM
O=C1C(Br)=C[C@H]2C3C=CC(Br)(C3=O)[C@@H]12 (some centres undefined)	inactive: 6.52 µM
CSc1nc(SC)c2c(C)cn(Cc3ccccc3)c2n1	inactive: 64.1 µM
N#C[C@H](c1nc2ccccc2[nH]1)c1nc2ccccc2nc1Cl	inactive: 4.65 µM
COc1ccc(OC)c(CNc2ccc(O)c(C(=O)NCCc3ccc(F)cc3)c2)c1	inactive: 18.7 µM
CC(C)(C)c1cc(O)c2c(c1O)C(=O)CCC2	inactive: 66.1 µM
COc1ccc(CNc2nc3ccc(C(F)(F)F)cc3nc2-c2ccccc2)cc1OC	inactive: > 100 µM
CC(C)=CC(=O)N1CCN(C(=O)C=C(C)C)CC1	inactive: > 100 µM
NNc1ncc2c(n1)-c1ccccc1OC2	inactive: 44.1 µM
C=C(CC(=O)Nc1ccc(C(=O)OC)o1)C(=O)OC	inactive: > 100 µM
CC1=C/C(O)CC(=O)Cc2nc(co2)C(=O)N2CCC=C2C(=O)OC(C(C)C)C(C)/C=C\C(=O)NC/C=C\1 (centres undefined)	inactive: 28.2 µM
Nn1c(Nc2ccc(S(N)(=O)=O)cc2)nnc(/C=C/c2c(O)ccc3ccccc23)c1=O	inactive: 15.8 µM
Nc1cccc2c1C1=NNC(=O)CC1C2 (centres undefined)	inactive: > 100 µM
Cc1c/c(=N/NC(=O)c2ccncc2)n2nc(N)sc2n1	inactive: > 100 µM
O=C(CP(=O)(O)O)c1cccs1	inactive: > 100 µM
O=C1c2ccccc2C(=O)N1CC#CCO	inactive: > 100 µM
C=C1C(=O)OC2C(C)C3C=CC(=O)[C@@]3(C)C(OC(=O)/C(C)=C/C)C1[C@@H]2OC(C)=O (some centres undefined)	inactive: 1.82 µM
CCOc1ccc(NC(=O)/C(CC(=O)c2c[n+]([O-])c3ccccc3[n+]2[O-])=N\OCCCc2ccccc2)cc1	inactive: > 100 µM
COc1ccc(/C(C=O)=C(\Cl)c2ccc(OC)c(OC)c2)cc1	inactive: > 100 µM
CSc1nc(SC)c2c(CN=[N+]=[N-])c(Br)n(Cc3ccccc3)c2n1	inactive: > 100 µM
COc1cc2c(cc1OC)C/C(=N\O)c1cc(OC)c(OC)cc1/C=C\2	inactive: 7.53 µM
CC1(C)OC(=O)C(c2ccsc2)C(=O)O1	inactive: > 100 µM

SMILES	GI50
C=CCCCCCCCCCOC1C=CC(O)C(CO)O1 (centres undefined)	inactive: > 100 µM
NN/C(=N\S(=O)(=O)c1cc2ccccc2s1)Nc1ccc(Cl)cc1	inactive: 22.4 µM
C=CCOc1ccc(C2(O)c3ccccc3C3=NCCCN32)cc1 (centres undefined)	inactive: 59.3 µM
C/C=C1/CC(C(=O)OC)N(C(=O)OCc2ccccc2)C1=S (centres undefined)	inactive: 44.3 µM
COCCOCOc1ccc(OCc2ccccc2)cc1	inactive: > 100 µM
CCN(CC)CC1CCCCCCCCCCC1=O (centres undefined)	inactive: > 100 µM
Cc1cc(Nc2ccc(/N=N/c3ccc(O)c4ncccc34)cc2)nc(C)n1	inactive: 22.4 µM
Cc1cc2ncn(C3CCCO3)c2cc1C (centres undefined)	inactive: > 100 µM
N#Cc1c(NCCc2ccc(F)cc2)c2ccccc2n2c1nc1ccccc12	inactive: 29.1 µM
Cc1cccc2nc3cccc(C(=O)NCCN(C)C)c3nc12	active: 0.845 µM
CN1B(c2ccccc2)N(C)C(=O)N(C)C1=O	inactive: > 100 µM
N#Cc1c(N)oc(-c2cccc([N+](=O)[O-])c2)c1C#N	inactive: 72.8 µM
COc1cc(/C=C(\C#N)C(=O)c2ccccc2)ccc1OCc1ccccc1	inactive: > 100 µM
Cc1nc(N)sc1C(=O)/C=C/c1ccc(/C=C/C(=O)c2sc(NC(=O)CCCCCCCCC(=O)Nc3nc(C)c(C(=O)/C=C/c4ccc(/C=C/C(=O)c5sc(N)nc5C)cc4)s3)nc2C)cc1	inactive: > 100 µM
COc1cc2c(c(O)c1OC)CC1CCC(=O)N1C2c1cccc2ccccc12 (centres undefined)	inactive: 34.2 µM
N#CC(c1cc2c(cc1Br)OCO2)N1CCOCC1 (centres undefined)	inactive: 34.2 µM
O=C1N[C@@H](c2c[nH]c3cc(Br)ccc23)C(=O)N[C@H]1c1c[nH]c2cc(Br)ccc12	inactive: > 100 µM
COC1CC(C)C(OC)c2cc(O)cc(c2O)NC(=O)/C(C)=C/C=C\C(C)C(OC(N)=O)/C(C)=C\C(C)C1OC (centres undefined)	inactive: 4.78 µM
COc1ccc(CCC2c3cc(OC)c(OC)cc3CCN2C)cc1OC (centres undefined)	inactive: > 100 µM
Cc1cc2c([nH]c3ccccc32)c(O)c1-c1c(C)cc2c([nH]c3ccccc32)c1O	inactive: 16 µM
CCOC(=O)CCC(NC(=O)c1ccc(Nc2nc3ccccc3n3cccc23)cc1)C(=O)OCC (centres undefined)	inactive: 11 µM
Nc1ccn(C2C=C(CO)C(O)C2O)c(=O)c1 (centres undefined)	inactive: > 625 µM
C=C1C2CC(OC(C)=O)C3(C)C(c4ccoc4)OC(=O)[C@@H](O)[C@]13OC1C[C@H](OC(C)=O)C(C)(C)[C@H](CC(=O)OC)[C@]12C (some centres undefined)	inactive: > 100 µM
C(=N/Nc1ccccn1)/c1cccnc1	inactive: > 100 µM
O=C1/C(=C/c2ccccc2)CCCC/C1=C\c1ccccc1	inactive: > 100 µM

SMILES	GI50
Cc1cc(Cl)ccc1NC(=O)/C(=N\NC(C)(C)C)C(C#N)c1nc(-c2ccc([N+](=O)[O-])cc2)cs1 (centres undefined)	inactive: > 100 µM
O=C1N[C@H]2c3c(Cl)sc(Cl)c3/C(=N/O)[C@H]2O1	inactive: > 100 µM
COC(=O)c1ccc(CCC2=CC(=O)C(Br)=CC2=O)cc1	inactive: 26.5 µM
Nc1nc(Cl)cc(NCC2(O)CCC2)n1	inactive: > 100 µM
Brc1cc2c(cc1Br)CN(c1ccccc1)C2	inactive: > 100 µM
COc1c(Br)cc2ccccc2c1-c1c(OC)c(Br)cc2ccccc12	inactive: > 100 µM
COc1cc2c(c(OC)c1OC)C(=O)c1c(O)cc(C)c(OC)c1C2=O	inactive: 62.1 µM
O=C(O)c1ccccc1C(=O)NCC1S(=O)(=O)OCCOS1(=O)=O	inactive: > 100 µM
CCN(CC)c1ccc(C(=C2C=CC(=[N+](CC)CC)C=C2)c2ccccc2)cc1	active: 0.0615 µM
CC(=O)ON(C(C)=O)c1ccc(-c2nc3ccccc3s2)cc1C	inactive: 55.5 µM
COc1ccc(/N=N/c2c(-c3ccccc3)nn(C(=O)CC(=O)Nc3cccc(Cl)c3)c2-c2ccccc2)cc1	inactive: > 100 µM
CC12CC3C(CC1SCC(=O)O2)C3(C)C (centres undefined)	inactive: > 100 µM
COC(=O)[C@H]1[C@@H](C(C)C)O[C@@H](C(C)C)O[C@H]1C(F)(F)F	inactive: > 100 µM
NC(CNc1ccc(O)cc1)C(=O)O (centres undefined)	inactive: > 100 µM
N/C(=N\O)N/N=C\c1c2ccccc2c(Cl)c2ccccc12	inactive: 3.06 µM
Cn1c(=O)cc(/N=N\c2ccc(Cl)c(Cl)c2)[nH]c1=O	inactive: > 100 µM
NC1(c2cc3ccccc3s2)CCCC1	inactive: 66.7 µM
Cc1cccc(C)c1NC(=O)/C=C/c1ccccc1	inactive: > 100 µM
O=C(/C=C/c1c[nH]c2ccccc12)c1ccccc1O	inactive: 9.73 µM
NC1=NN(c2ccccc2)C(=O)C1C(=O)C(=O)Nc1ccc(Cl)c(Cl)c1 (centres undefined)	inactive: > 100 µM
COc1ccc(N2C(=O)/C(=C/c3ccc(N(CCC#N)CCC#N)cc3)N=C2c2ccccc2)cc1	inactive: > 100 µM
Cc1cccc2c1CCC21OC(=O)c2c1ccc1ccccc21 (centres undefined)	inactive: 91.2 µM
COc1cc2c(cn1)[nH]c1ccccc12	inactive: > 100 µM
c1ccc(C(CCN2CCCC2)c2ccccn2)cc1 (centres undefined)	inactive: > 100 µM

Source: ChEMBL document CHEMBL1201862, “PubChem BioAssay data set” (2004)
